Experimental data from PubChem BioAssay AID493208 (National Center for Advancing Translational Sciences (NCATS), 2011).
Screen size: about 44,000 compounds; about 340 (0.77%) were called active. About 5% were inconclusive and are not listed. Calls come from the whole dose curve; as a rule, active = well fitted inhibition curve with a large enough effect; inconclusive = small, poorly fitted or top-dose-only effect; inactive = flat fitted curve, though single readings scatter. The list shows a part of the results.

assay: Acumen qHTS Assay for Inhibitors of the mTORC1 Signaling Pathway in MEF (Tsc2-/-, p53-/-) Cells: Sytravon; settings: phospho-rpS6 immunofluorescence/PI, 24 h; series mostly up to 38.3 µM; activity change, negative = inhibition: at the top concentration;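 note: plate controls were DMSO for no effect and rapamycin for full effect; nearly all actives have a fitted effect of over 50% in size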
Procedure, shortened: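 Immunofluorescence of rpS6 phosphorylation in Tsc2-/-, p53-/- MEFs after 24 h compound exposure, normalized to propidium iodide signal. Activity is expressed as % positive cells, thresholded with 7.5 nM rapamycin.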

Activity change, negative = inhibition, inactive:
O=C(Nc1ccc(F)c(Cl)c1)C1CCN(S(=O)(=O)c2ccc3c(c2)CCCN3C(=O)C2CCC2)CC1 -7.17%
Cc1ccc(CSc2cn(CCNC(=O)c3cccs3)c3ccccc23)cc1 1.48%
O=C(Cn1c(SCC(=O)Nc2ccc(F)cc2)nc2ccccc21)NCc1ccc(Cl)cc1 -12.5%
Nc1ncc(S(=O)(=O)Nc2ccc(OC(F)(F)F)cc2)cn1 -9.56%
COc1ccccc1N(CC(=O)Nc1cc(C)cc(C)c1)S(C)(=O)=O 2.71%
O=C(Nc1nnc(S(=O)(=O)N2CCCCCC2)s1)c1ccccc1 0%
CCc1ccc(NS(=O)(=O)c2c(-c3ccccc3)csc2C(=O)OC)cc1 -24.4%
Cc1cc(NCc2ccc(Cl)cc2)n2cnnc2n1 -16.2%
Nc1nonc1-c1nc2ccccc2n1CC(=O)Nc1cccc(Cl)c1Cl -22.7%
CCc1cccc(NC(=O)Cn2ccn3nc(-c4ccc(OC)c(OC)c4)cc3c2=O)c1 6.8%
O=C(Nc1ccc(F)cc1)c1ccc2c(c1)NC(=O)c1ccccc1S2 -3.18%
CN(Cc1ccco1)S(=O)(=O)c1nnc(NC(=O)c2ccccc2)s1 -4.79%
Cc1cccc(-c2noc(-c3ccc(NCc4cccnc4)c([N+](=O)[O-])c3)n2)c1 2.6%
CCOc1ccc(NC(=O)c2nnn(-c3ccc(F)c(Cl)c3)c2C)cc1 2.18%
Cc1ccccc1NC(=O)Cn1cc(S(=O)(=O)N2CCCC2)c(S(=O)(=O)N2CCCC2)c1 7.22%
CC1=C(C(=O)Nc2ccccc2)C(c2ccccn2)n2nc(SCc3ccccc3Cl)nc2N1 (stereo not given) 0%
COC(=O)c1ccc(Oc2nc3c(c(=O)n(C)c(=O)n3C)n2Cc2ccc(Cl)c(Cl)c2)cc1 3.28%
CCC(=O)Nc1cccc(OCc2cc(=O)n3cc(C)ccc3n2)c1 -4.2%
COc1ccc(NC(=O)c2oc3ccccc3c2NC(=O)C23CC4CC(CC(C4)C2)C3)cc1 -1.3%
COc1ccc(OC)c(NC(=O)c2c(NCc3ccc(N(C)C)cc3)sc3c2CCCC3)c1 -19.1%
COc1cc(OC)cc(C(=O)Nc2ccc3c(c2)n(C)c(=O)c(=O)n3C)c1 -9.29%
Cc1ccc(OCc2cc(=O)n3c4c(sc3n2)CCCC4)cc1C -2.43%
COc1ccc(S(=O)(=O)N(CC(=O)Nc2ccc3c(c2)OCO3)c2ccc(C)cc2)cc1 5.42%
O=C(NCc1ccccc1Cl)c1ccc(NC(=O)N2CCSc3ccccc32)cc1 1.14%
Cn1cc(S(=O)(=O)N2CCCCC2)cc1C(=O)Nc1ccc(OC(F)(F)F)cc1 -10.3%
O=C(Cn1cc(S(=O)(=O)c2ccccc2)c(=O)c2cc3c(cc21)OCO3)Nc1ccccc1 -21.4%
O=C(NCCCc1ccccc1)c1nn(-c2ccccc2)nc1CO 1.76%
CCc1ccc2occ(CC(=O)Nc3sc4c(c3C(=O)NCCOC)CCCC4)c2c1 3.52%
Cc1ccc(S(=O)(=O)C(CNC(=O)c2ccc(C(F)(F)F)cc2)c2ccco2)cc1 (stereo not given) -0.954%
Cc1noc(-c2ccc(-c3noc(-c4cccc(Cl)c4)n3)cc2)n1 -0.443%
Cc1nc2nc(SCC(=O)NC3CCC(C)CC3)nn2c(C)c1Cc1ccccc1Cl (stereo not given) -2.04%
Cc1nc2c(-c3ccccc3)c(C)nn2c(C)c1CCC(=O)NCc1ccccc1 3.54%
CCn1cc2nc(SCc3cccc(C)c3)n(CCc3ccccc3)c(=O)c2n1 -17%
CCOC(=O)c1ccc(NC(=O)CCC(=O)N2CCSc3ccccc32)cc1 -12.8%
CCc1ccc2oc(-c3ccc(C)c(NC(=O)c4ccc(C#N)cc4F)c3)nc2c1 -7.12%
COc1ccc2c(c1)c(=O)c(S(=O)(=O)c1ccccc1)cn2CC(=O)Nc1ccc2c(c1)OCO2 -17.3%
CCCN(C(=O)Cn1ncc2c([nH]c3ccccc32)c1=O)c1ccc(F)cc1 0.632%
CC(=O)c1cccc(NC(=O)CCCSc2nc(-c3ccco3)cc(C(F)(F)F)n2)c1 -18.9%
CCOC(=O)C1CCCN(C(=O)c2ccc3c(c2)N(Cc2ccccc2F)C(=O)c2ccccc2S3=O)C1 (stereo not given) -1.54%
COc1ccc(CCNC(=O)CCn2c(=O)c3ccccc3n(CC(=O)Nc3cc(Cl)ccc3C)c2=O)cc1OC -1.44%
CCc1ccccc1NC(=O)Nc1cc(C(=O)NCc2ccccc2OC)ccc1N1CCCC1 2.53%
COc1ccc(NC(=O)CN2C(=O)C(c3ccc(C)cc3)=NC23CCCCCC3)cc1Cl 7.3%
Cc1ccc(NC(=O)c2ccc(CNS(=O)(=O)c3ccc4c(c3)C(C)(C)C(=O)N4C)cc2)cc1 -18.7%
CN(C)CCNC(=O)C(=O)NCC(c1cccnc1)N1CCN(c2ccccc2)CC1 (stereo not given) 4.98%
COc1cccc(-c2nc(SCC(=O)NCC3CCCO3)c(-c3ccc(Cl)cc3)[nH]2)c1 (stereo not given) 0.389%
Clc1cccc(-n2ncc3c(Nc4ccc5c(c4)OCCO5)ncnc32)c1 5.8%
Cc1ccc(C)c(Cn2c(=O)n(-c3ccc(F)cc3)c(=O)c3sc4ccccc4c32)c1 -12.6%
COc1ccc(N2CCN(C(=O)Cn3c(-c4cccs4)cc4ccccc43)CC2)cc1 0.554%
CC(=O)N1CCc2cc(S(=O)(=O)NC(Cc3ccccc3)C(=O)Nc3ccc(C)cc3C)ccc21 (stereo not given) -24.4%
O=C(CSc1nc2ccsc2c(=O)n1Cc1ccccc1F)NCc1ccccc1Cl -4.38%
CCc1ccc(NC(=O)CC2C(=O)N(c3ccc(OC)cc3)C(=O)N2Cc2cccs2)cc1 (stereo not given) 2.84%
CCC(=O)N1CCCc2cc(S(=O)(=O)N3CCC(C(=O)Nc4cccc(Cl)c4)CC3)ccc21 -6.92%
O=C(Nc1cccc(Cl)c1Cl)c1cc(S(=O)(=O)N2CCCc3ccccc32)ccc1F -11.6%
COc1cc(OC)c(N(C)C(=O)CSc2c3c(nc4ccc(Cl)cc24)CCCC3)cc1Cl -1.32%
CCOC(=O)c1cnc2c(C)cc(C)cc2c1Nc1ccccc1OCC 9.52%
COc1ccc(C(=O)Nc2ccc3oc(-c4cc(Cl)ccc4Cl)nc3c2)cc1Br -0.537%
Cc1nn2c(-c3ccco3)ccnc2c1-c1ccc(Cl)cc1 -1.83%
O=c1cc2nc(-c3ccccc3)nc(SCCOc3ccc(Cl)cc3)n2[nH]1 1.27%
COC(=O)c1c(NC(=O)/C=C/c2ccc(OC)cc2)sc2c1CCC2 6.14%
COc1ccc(CNC(=O)CSc2ncc3c(n2)-c2cc(Cl)ccc2N(C)S3(=O)=O)cc1 -9.65%
